{"source": "PubChem BioAssay AID504333", "about": "(National Center for Advancing Translational Sciences (NCATS), 2011)", "note": "About 16,000 (4.4%) of roughly 360,000 compounds were called active. This list was built around the results that the source calls inconclusive (neither active nor inactive); the mix of calls is not that of the screen. Calls follow the shape of the dose curve; as a rule, active = well fitted inhibition curve with a large enough effect; inconclusive = small, poorly fitted or top-dose-only effect; inactive = no such curve, though single readings can be large or run the other way. Where the call is inconclusive, the potency comes from a doubtful curve fit. Potency is read from the fitted curve at half-maximal effect; tags tell the direction and shape of the fitted curve.", "data": [{"molecular_target": "Bromodomain adjacent to zinc finger domain protein 2B (Homo sapiens) (UniProt Q9UIF8)", "sequence (Q9UIF8 whole entry, looked up, the tested form may be a part)": "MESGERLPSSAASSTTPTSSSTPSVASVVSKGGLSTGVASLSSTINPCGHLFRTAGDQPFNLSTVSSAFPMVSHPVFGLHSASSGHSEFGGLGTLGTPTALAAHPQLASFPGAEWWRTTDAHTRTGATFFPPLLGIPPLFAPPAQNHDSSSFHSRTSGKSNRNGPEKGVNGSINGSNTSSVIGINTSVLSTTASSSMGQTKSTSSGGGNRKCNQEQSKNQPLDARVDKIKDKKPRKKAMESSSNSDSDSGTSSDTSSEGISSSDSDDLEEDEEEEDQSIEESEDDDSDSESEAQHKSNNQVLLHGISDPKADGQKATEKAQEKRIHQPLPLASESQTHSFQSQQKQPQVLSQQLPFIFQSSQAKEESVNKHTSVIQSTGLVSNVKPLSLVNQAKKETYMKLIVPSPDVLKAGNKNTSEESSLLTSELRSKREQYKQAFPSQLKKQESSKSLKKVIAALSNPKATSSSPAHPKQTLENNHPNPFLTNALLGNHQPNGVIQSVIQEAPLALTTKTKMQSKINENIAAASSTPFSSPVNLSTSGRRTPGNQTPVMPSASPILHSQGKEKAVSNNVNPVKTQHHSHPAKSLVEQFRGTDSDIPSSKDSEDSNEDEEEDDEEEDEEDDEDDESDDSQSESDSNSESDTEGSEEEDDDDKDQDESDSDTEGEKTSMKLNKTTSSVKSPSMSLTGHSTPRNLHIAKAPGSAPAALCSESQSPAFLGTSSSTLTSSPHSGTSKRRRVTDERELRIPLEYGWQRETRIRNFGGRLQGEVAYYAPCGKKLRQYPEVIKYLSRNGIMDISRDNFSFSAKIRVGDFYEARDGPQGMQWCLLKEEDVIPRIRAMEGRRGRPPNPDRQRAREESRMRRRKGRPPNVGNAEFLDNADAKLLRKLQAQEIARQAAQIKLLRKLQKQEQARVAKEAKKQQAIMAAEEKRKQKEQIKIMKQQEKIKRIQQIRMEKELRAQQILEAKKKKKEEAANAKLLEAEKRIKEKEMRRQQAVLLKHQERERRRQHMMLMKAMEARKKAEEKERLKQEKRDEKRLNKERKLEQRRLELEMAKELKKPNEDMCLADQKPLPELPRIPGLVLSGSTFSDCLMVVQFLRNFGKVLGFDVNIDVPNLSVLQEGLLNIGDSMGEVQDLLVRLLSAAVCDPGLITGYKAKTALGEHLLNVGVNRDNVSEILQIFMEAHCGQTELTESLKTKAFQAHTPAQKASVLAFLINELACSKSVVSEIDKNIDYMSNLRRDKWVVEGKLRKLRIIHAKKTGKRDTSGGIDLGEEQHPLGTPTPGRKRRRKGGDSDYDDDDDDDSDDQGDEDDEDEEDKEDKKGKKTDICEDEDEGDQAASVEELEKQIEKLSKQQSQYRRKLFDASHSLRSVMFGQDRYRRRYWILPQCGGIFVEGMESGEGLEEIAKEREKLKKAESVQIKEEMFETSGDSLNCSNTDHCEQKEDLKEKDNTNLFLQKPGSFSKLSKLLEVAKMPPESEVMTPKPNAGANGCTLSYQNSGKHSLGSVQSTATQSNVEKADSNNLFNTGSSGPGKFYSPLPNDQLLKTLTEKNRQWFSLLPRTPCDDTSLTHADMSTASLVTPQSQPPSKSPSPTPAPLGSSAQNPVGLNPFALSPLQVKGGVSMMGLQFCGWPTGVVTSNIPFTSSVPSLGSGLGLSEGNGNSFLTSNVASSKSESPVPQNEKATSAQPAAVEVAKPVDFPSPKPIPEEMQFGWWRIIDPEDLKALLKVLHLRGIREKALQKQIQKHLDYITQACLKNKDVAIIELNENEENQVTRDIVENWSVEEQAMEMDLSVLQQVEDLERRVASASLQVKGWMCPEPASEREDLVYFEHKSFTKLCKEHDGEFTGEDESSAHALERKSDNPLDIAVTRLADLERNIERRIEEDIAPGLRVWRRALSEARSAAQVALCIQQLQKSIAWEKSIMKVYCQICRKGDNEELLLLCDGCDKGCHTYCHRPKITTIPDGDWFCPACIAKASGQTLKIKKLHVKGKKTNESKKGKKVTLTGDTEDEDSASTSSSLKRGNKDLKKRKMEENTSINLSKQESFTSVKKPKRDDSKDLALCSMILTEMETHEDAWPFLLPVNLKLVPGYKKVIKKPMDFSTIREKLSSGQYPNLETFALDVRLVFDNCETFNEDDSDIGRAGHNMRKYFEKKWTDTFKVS", "experiment": "qHTS Assay for Inhibitors of BAZ2B; also: nearly all actives have a fitted effect of over 60% in size", "conditions": "AlphaScreen BAZ2B-H3K14Ac peptide displacement; series mostly up to 114 µM", "how_it_was_run": "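AlphaScreen displacement of biotin-H3(5-23)K14Ac peptide (50 nM final) from BAZ2B (50 nM final) in PBS pH 7.4, 0.01% Tween-20; complex preformed 30 min RT, then compounds (top 110 uM) 30 min RT, beads 20 min dark.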", "values": [{"smiles": "COc1ccc(C(c2nnnn2CCc2ccccc2)N2CCN(C3CCCC3)CC2)cc1OC", "note": "(stereo not given)", "Potency": "inconclusive: 89.1 µM [inhibitor, single point]"}, {"smiles": "CCCCN(C)C1=CC2=CC(=C(C#N)C#N)CCC2CC1", "note": "(stereo not given)", "Potency": "inconclusive: 44.7 µM [inhibitor, partial curve]"}, {"smiles": "CCN(CC)c1ccc(/C=N/OC(C)C(=O)Nc2ccc(C)cc2)cc1", "note": "(stereo not given)", "Potency": "inconclusive: 79.4 µM [inhibitor, single point]"}, {"smiles": "CCN(CC)c1ccc(NC(=O)c2ccc(Br)o2)cc1", "Potency": "active: 50.1 µM"}, {"smiles": "O=C(NC(=S)Nc1cc([N+](=O)[O-])ccc1Cl)c1ccccc1", "Potency": "inactive"}, {"smiles": "Cc1ccc(C(=S)NCS(=O)(=O)c2ccc(C)cc2)cc1", "Potency": "inconclusive: 89.1 µM [inhibitor, single point]"}, {"smiles": "COC/C=C/C1=CC2=CC(=O)C(C)(OC(=O)c3cnc4ccccc4n3)C(=O)C2=CN1Cc1ccc(OC)cc1", "note": "(stereo not given)", "Potency": "inconclusive: 56.2 µM [inhibitor, partial curve, poor fit]"}, {"smiles": "CCc1nnc(NC(=O)c2ccc(COc3ccccc3C)o2)s1", "Potency": "inactive"}, {"smiles": "COc1cc(C2Nc3c(F)cccc3C3C=CCC32)cc(Br)c1OC", "note": "(stereo not given)", "Potency": "inconclusive: 56.2 µM [inhibitor, partial curve]"}, {"smiles": "COc1cc(C2CC(=O)NC(SCC(=O)Nc3ccccc3C)=C2C#N)ccc1O", "note": "(stereo not given)", "Potency": "inactive"}, {"smiles": "O=C(O)c1ccc(N2CCc3ccccc32)c([N+](=O)[O-])c1", "Potency": "inconclusive: 50.1 µM [inhibitor, partial curve]"}, {"smiles": "N#Cc1ccccc1S(=O)(=O)N1CCN(C(=O)c2ccc(-n3cncn3)c([N+](=O)[O-])c2)CC1", "Potency": "inconclusive: 89.1 µM [inhibitor, single point]"}, {"smiles": "Cn1c(=O)n(Cc2ccccc2Cl)c(=O)c2c1[nH]c(=S)n2C", "Potency": "inconclusive: 56.2 µM [inhibitor, partial curve]"}, {"smiles": "S=C(/N=c1/sccn1Cc1ccccc1)NC1CC1", "Potency": "active: 56.2 µM"}, {"smiles": "CCOC(=O)c1c(-c2ccc(OC)c(OC)c2)csc1NC(=O)C1CCCO1", "note": "(stereo not given)", "Potency": "inconclusive: 79.4 µM [inhibitor, single point]"}, {"smiles": "COc1cc(OC)cc(C(=O)OCC(=O)NCc2ccco2)c1", "Potency": "active: 50.1 µM"}, {"smiles": "CC1CC(C)(C)NC(=S)N1CCC(=O)NCc1ccc(Cl)cc1", "note": "(stereo not given)", "Potency": "inactive"}, {"smiles": "O=C1C(Cl)=C(Nc2ccccc2O)C(=O)N1c1ccccc1", "Potency": "inconclusive: 56.2 µM [inhibitor, single point]"}, {"smiles": "CCc1ccc(C(=O)CSc2n[nH]c(C)n2)cc1", "Potency": "inconclusive: 100 µM [inhibitor, single point]"}, {"smiles": "C=CCNC(=S)N1CCc2c([nH]c3ccccc23)C1C", "note": "(stereo not given)", "Potency": "inconclusive: 56.2 µM [inhibitor, partial curve]"}, {"smiles": "COc1cccc(O)c1CN1CCC(C(=O)Nc2ccc(Oc3cccnc3)cc2)CC1", "Potency": "inactive"}, {"smiles": "COc1ccccc1/C=N\\Nc1ccccc1[N+](=O)[O-]", "Potency": "active: 3.16 µM"}, {"smiles": "CC(=O)c1cn(CC(=O)NCc2ccco2)c2ccccc12", "Potency": "inconclusive: 79.4 µM [inhibitor, single point]"}, {"smiles": "Cc1c(C)n(Cc2ccccc2)c2ccc(C(=O)NCc3ccc(OC(C)C)cc3)cc12", "Potency": "inconclusive: 79.4 µM [inhibitor, partial curve]"}, {"smiles": "COc1cc(C(=O)Nc2nccs2)ccc1OCc1c(C)noc1C", "Potency": "inconclusive: 89.1 µM [inhibitor, single point]"}, {"smiles": "O=C(CSc1nnc(-c2ccco2)o1)NC(=O)Cc1ccccc1", "Potency": "active: 79.4 µM"}, {"smiles": "OC(CN1CCN(c2cccc(Cl)c2)CC1)C(c1ccccc1)c1ccccc1", "note": "(stereo not given)", "Potency": "inconclusive: 70.8 µM [inhibitor, single point]"}, {"smiles": "C#CCOCCOCCOCCNc1nc(N2CCN(C(=O)C([C@@H](C)CC)n3cc(C(N)Cc4ccc(O)cc4)nn3)CC2)nc(N2CCN(C(=O)[C@H](CCC(=O)O)n3cc(C(N)CC(C)C)nn3)CC2)n1", "note": "(stereo not given in full)", "Potency": "active: 50.1 µM"}, {"smiles": "NC(=O)CC(NC(=O)Cc1cccc2ccccc12)c1ccc(NC2CC3CCC2C3)c([N+](=O)[O-])c1", "note": "(stereo not given)", "Potency": "inconclusive: 79.4 µM [inhibitor, single point]"}, {"smiles": "COc1ccc(-c2c(C#N)c(SCC(=O)Nc3ccc(Br)cc3)nc(C)c2C(=O)Nc2ccccc2)cc1", "Potency": "inactive"}, {"smiles": "COC(=O)CCCSc1nccn1-c1ccccc1", "Potency": "inconclusive: 79.4 µM [inhibitor, single point]"}, {"smiles": "Cc1ccc(C)c(NS(=O)(=O)c2ccc3[nH]c(=O)oc3c2)c1", "Potency": "active: 79.4 µM"}, {"smiles": "Cc1cc(C(=O)NC(=S)Nc2ccccc2N2CCOCC2)ccc1[N+](=O)[O-]", "Potency": "inconclusive: 10 µM [inhibitor, full curve]"}, {"smiles": "COc1ccc(-n2c(C)c(C)c3c(NCCCO)ncnc32)cc1", "Potency": "inconclusive: 79.4 µM [inhibitor, single point]"}, {"smiles": "N#Cc1nc(Cc2cccc3ccccc23)oc1NCc1ccc(F)cc1", "Potency": "inconclusive: 28.2 µM [inhibitor, full curve]"}, {"smiles": "CCOc1ccc(NC(=O)c2cc(S(=O)(=O)N3CCCC3)c[nH]2)cc1", "Potency": "inconclusive: 79.4 µM [inhibitor, single point]"}, {"smiles": "Cn1nnnc1Sc1ncnc2scc(-c3cccs3)c12", "Potency": "active: 10 µM"}, {"smiles": "CC1=C(C(=O)Nc2ccccc2C)C(c2ccco2)n2ncnc2N1", "note": "(stereo not given)", "Potency": "inactive"}, {"smiles": "O=C(O)CCN(CC(=O)c1ccc(Cl)cc1)S(=O)(=O)c1ccc([N+](=O)[O-])cc1", "Potency": "inconclusive: 79.4 µM [inhibitor, single point]"}, {"smiles": "COc1ccc(CNC(=O)OCCN2CCN(S(=O)(=O)c3ccc(C)cc3)CCC2=O)cc1", "Potency": "inconclusive: 100 µM [inhibitor, partial curve]"}, {"smiles": "Cc1sc(N)nc1-c1c(C)n(C)c2ccccc12", "Potency": "inconclusive: 50.1 µM [inhibitor, partial curve]"}, {"smiles": "CCCOC(=O)C[N+](C)(C)CCOC1CC2CCC1(C)C2(C)C", "note": "(stereo not given)", "Potency": "inactive"}, {"smiles": "CCN(Cc1ccccc1)S(=O)(=O)c1ccc(C(=O)N(CCCN(C)C)c2nc3cc(OC)ccc3s2)cc1", "Potency": "inconclusive: 44.7 µM [inhibitor, partial curve]"}, {"smiles": "CC(O)CN(Cc1cccc(Cl)c1)CC(C)O", "note": "(stereo not given)", "Potency": "active: 56.2 µM"}, {"smiles": "CC(C)COc1ccc(C(=O)Nc2ccccc2[N+](=O)[O-])cc1", "Potency": "inconclusive: 35.5 µM [inhibitor, partial curve]"}, {"smiles": "COc1ccc(-c2nc3nc(C)cc(Nc4cccc(C(F)(F)F)c4)n3n2)cc1", "Potency": "inconclusive: 50.1 µM [inhibitor, partial curve]"}, {"smiles": "O=c1[nH][nH]c2cc(=O)n(-c3cccc(C(F)(F)F)c3)nc12", "Potency": "inconclusive: 39.8 µM [inhibitor, partial curve]"}, {"smiles": "NC(=O)SC/C(=N\\S(=O)(=O)c1ccccc1)Nc1ccccc1", "Potency": "inactive"}, {"smiles": "CCN(CC)c1ccc(/C=N/Nc2nc3ccccc3[nH]2)cc1", "Potency": "active: 10 µM"}, {"smiles": "COc1ccc(NC(=O)Cn2c(=O)n(CC(=O)NCCc3ccccc3)c(=O)c3ccccc32)cc1", "Potency": "inconclusive: 89.1 µM [inhibitor, single point]"}, {"smiles": "Cc1ccc(C)n1C(Cc1ccccc1)C(=O)O", "note": "(stereo not given)", "Potency": "active: 39.8 µM"}, {"smiles": "Cc1nn(-c2ccccc2)c(C)c1/C=C1\\C(=O)N(C)C(=S)N1C", "Potency": "inconclusive: 70.8 µM [inhibitor, single point]"}, {"smiles": "C/C(=N\\NC(N)=O)C1CC(Cc2ccccc2)C(=O)O1", "note": "(stereo not given)", "Potency": "inactive"}, {"smiles": "Cc1cccc(C2c3[nH]c4ccccc4c3CCN2C(=O)c2ocnc2C)n1", "note": "(stereo not given)", "Potency": "active: 79.4 µM"}, {"smiles": "CCn1nc(NS(=O)(=O)c2ccc([N+](=O)[O-])cc2)c2cc3cccc(C)c3nc21", "Potency": "inconclusive: 35.5 µM [inhibitor, partial curve]"}, {"smiles": "O=C(Nc1ccc(Cl)c(Cl)c1)C1=Cc2ccccc2OC1", "Potency": "inconclusive: 7.94 µM [inhibitor, single point]"}, {"smiles": "COc1ccccc1N1N=C(c2ccc([N+](=O)[O-])cc2)CC1c1ccccc1", "note": "(stereo not given)", "Potency": "active: 11.2 µM"}, {"smiles": "CCc1ccc(NCc2cc3cc4c(cc3n(CC(=O)Nc3ccccc3Cl)c2=O)OCO4)cc1", "Potency": "inconclusive: 89.1 µM [inhibitor, single point]"}, {"smiles": "CCc1ccc(NC(=S)NC2CC3CCCC(C2)N3Cc2ccccc2)cc1", "note": "(stereo not given)", "Potency": "inconclusive: 70.8 µM [inhibitor, single point]"}, {"smiles": "Cc1ccccc1CN(c1ccc(C(=O)Nc2ccccc2C(=O)NCc2ccco2)cc1)S(C)(=O)=O", "Potency": "inactive"}, {"smiles": "CC(=O)OCCNc1cc(SC(C)C)c2nonc2c1[N+](=O)[O-]", "Potency": "inconclusive: 89.1 µM [inhibitor, single point]"}, {"smiles": "CCOc1ccccc1N1CCN(Cc2ccco2)CC1", "Potency": "active: 50.1 µM"}, {"smiles": "Cc1cc(NC(=O)CCC(=O)N(c2ccccc2)C(C(=O)NC2CCCC2)c2ccc(F)cc2)no1", "note": "(stereo not given)", "Potency": "inactive"}, {"smiles": "c1ccc(NCc2nc3ccccc3n2CCOc2ccccc2)cc1", "Potency": "inconclusive: 39.8 µM [inhibitor, partial curve]"}, {"smiles": "CCC[N+](CC#CCO)(CC#Cc1ccccc1)CCC", "Potency": "inactive"}, {"smiles": "O=C1C(Cl)=C(NCCCO)C(=O)c2ccccc21", "Potency": "inconclusive: 89.1 µM [inhibitor, single point]"}, {"smiles": "CC(OC(=O)c1ccccc1NCCO)C(=O)Nc1ccnn1C(C)C", "note": "(stereo not given)", "Potency": "inconclusive: 79.4 µM [inhibitor, single point]"}, {"smiles": "COc1ccc2c3c([nH]c2c1)C(C)N(CCC(=O)NN)CC3", "note": "(stereo not given)", "Potency": "inconclusive: 79.4 µM [inhibitor, single point]"}, {"smiles": "Cc1ccc(C(=O)NCC(=O)OCC(=O)NC2CCCC(C)C2C)s1", "note": "(stereo not given)", "Potency": "inconclusive: 79.4 µM [inhibitor, single point]"}, {"smiles": "COc1ccc(CN2CCN(c3ccccc3OC)CC2)cc1OC", "Potency": "active: 50.1 µM"}]}]}
